Reference: ChEMBL document CHEMBL4888484, “Replenishing the malaria drug discovery pipeline: Screening and hit evaluation of the MMV Hit Generation Library 1 (HGL1) against asexual blood stage Plasmodium falciparum ,using a nano luciferase reporter read-out” (2022)
The campaign covered roughly 150,000 compounds. About 540 (0.36%) showed an effect of 50% or more. This is one part of the list.

Tested on: Plasmodium falciparum
Test: Primary screen in NF54 nanoGlo assay, in single point, at 2uM, 72h; a lower Z score goes with more inhibition
Type: functional, Erythrocyte
Conditions: timepoint 72 hour

SMILES	% Inhibition [%]	Z score
COc1ccc(CN2C(=O)c3ccccc3C2=O)cc1C(=O)NC1CCN2CCCCC12 (stereo not drawn)	-4	0.5
Cc1ncncc1C(=O)N(Cc1cccnc1)C1CCCCC1	-5	0.91
Cc1ccc(NC(=O)[C@H]2CC23CCCCC3)cn1	-6	1.08
Fc1ccc(CN[C@H]2CCCOC2)nc1	-3	0.48
CC(C)(C(=O)N1CCCc2n[nH]cc21)C1CCC(O)CC1 (stereo not drawn)	-6	1.23
Cc1c(Cl)cccc1N1C(=O)c2cc3occc3n2C[C@@]1(C)C(=O)NC1CCCCCC1	-20	3.68
COc1ccc([C@H](C)NCCc2nc(C(C)C)no2)c(F)c1	-5	0.76
CCO[C@H]1C[C@@H](O)C12CCN(C(=O)c1ccncc1)CC2	-6	1.12
Cc1cnc(CNC(=O)CC(=O)Nc2cc(Cl)ccc2C)cn1	-20	1.89
O=C(O)C[C@@H]1CCN(C(=O)NCc2ccccc2)C[C@@H]1CC1=NCCc2ccccc21	-8	1.17
O=S(=O)(Nc1cc(S(=O)(=O)N2CCCC2)ccc1OCC(F)(F)F)c1ccc2c(c1)OCCO2	-5	0.74
CC(C)(C)OC(=O)N1CCc2ncc(NC3CCOCC3)cc2C1	-2	0.38
CC(C)(N)COc1ncccc1Br	-15	2.09
Cc1cc(-c2cccc3c2OCC3)c(=O)[nH]n1	1	-0.21
NC(=O)CN1CCC(Cn2cnc3ccccc32)CC1	-6	0.71
Cc1cccnc1C[C@H](C)Nc1ncncn1	-5	0.6
COc1ccc(-c2ccc(CN3CCN(C)CC3)cn2)cc1F	5	-0.85
COCCN1CC[C@@]2(CCC1=O)CN(Cc1nc(C(C)C)no1)CCN2C	-11	1.75
Cc1nc(C)n(C2CN(C(=O)Cc3csc(-c4ccc(C)o4)n3)C2)n1	1	-0.14
CCC1CN(C(=O)C2CCCN(C(=O)c3ccc(F)cc3)C2)C(CC)CN1CC(C)(C)O (stereo not drawn)	-1	0.08
NC(=O)c1cc(NC(=O)C(F)(F)F)cc(C(N)=O)c1	-4	0.71
CN(C)[C@@H](CNC(=O)C(=O)Nc1ccon1)c1cccn1C	-10	1.76
c1ccc2sc(CN3CCC[C@H](C4OCCO4)C3)nc2c1	5	-0.83
Brc1ccccc1-c1nnc(CNC2CC2)o1	-17	2.13
COc1nc(NC[C@H](O)c2cccs2)nc(N2CCCCCC2)n1	-7	1.37
CC1CCCC(NC(=O)C2N(Cc3ccccc3F)C(=O)[C@H]3C(C(=O)Nc4ccc(F)c(Cl)c4)[C@H]4C=C[C@@]23O4)C1C (stereo partly drawn)	-2	0.29
CCn1cc(S(=O)(=O)N2CCCC2)cn1	6	-0.87

SMILES	% Inhibition [%]	Z score
Cc1cc2c(cc1C)N(Cc1cc(F)cc(F)c1)C(=O)CC(c1cccs1)=N2	1	-0.08
CCc1cc(=O)c2cc(NC(=O)c3c(C4CC4)cnn3C)ccc2[nH]1	-8	0.89
CCc1onc(C)c1NC(=O)N1Cc2cccnc2N2CCC[C@@H]2C1	-4	0.69
CN(C[C@H]1CCCN1C)C(=O)c1cc(F)c(F)cc1F	-6	1.11
O=c1c(-c2ccccc2)c(-c2ccccc2)[nH]c2ccccc12	-21	2.5
CC[C@H](O)CN(CCCOC)Cc1ccc(OC)c(OC)c1	-17	2.23
CCC(=O)N1CCCc2cc(S(=O)(=O)N3CCC(C(=O)NCc4cccs4)CC3)ccc21	-21	2.63
C[C@@H](CCn1cccn1)Nc1ccc(CC#N)cc1	5	-0.55
Cc1ccc(-c2noc3c(NCc4cccc(Cl)c4)nc(C)nc23)cc1	-1	0.12
Cc1ncc(CN(C)Cc2cn(C)nn2)s1	-5	0.57
CCOc1ccc(C(=O)N2CC[C@H]3[C@H](CCC(=O)N3CCCO)C2)o1	-7	1.2
COc1ccc(Cl)cc1C(=O)N1CC(Nc2cccnn2)C1	-12	1.4
COc1ccc(NC(=O)NC23CCCC2C3)cc1S(=O)(=O)N1CCOCC1 (stereo not drawn)	-5	0.74
CC1COC(C(F)(F)F)CN1C(=O)c1ccn2nnnc2c1 (stereo not drawn)	5	-0.7
CC(C)CO[C@H]1CCN(CC(=O)N2CC(=O)Nc3ccccc32)C1	4	-0.4
CC1CCCC(NC(=O)NCCC(N)=O)C1C (stereo not drawn)	-16	1.44
NC(=O)N1CC[C@H](NC(=O)c2ccc(-c3cccs3)s2)C1	-12	1.43
CC(=O)c1cccc(S(=O)(=O)N2CC(N3C(=O)CCC3=O)C2)c1	1	-0.11
CCOC1CC(NCc2c[nH]nc2-c2cccnc2)C12CCC2 (stereo not drawn)	-10	1.18
CS(=O)(=O)CCN1CCN(C(=O)c2cnc(-c3ccncc3)nc2)CC1	1	-0.26
c1ccc(-c2noc(-c3ccc(N4CCC(N5CCCCC5)CC4)nn3)n2)cc1	-10	1.2
Cc1cc(S(=O)(=O)N2CCC3(CCC(=O)N3Cc3ccc(F)cc3)CC2)ccc1F	-6	0.8
COc1cccc(C(=O)N2CCC3(CC2)N[C@@H](Cc2ccccc2)C(=O)N3C2CC2)c1	0	0.03
Cc1ccc(C[C@H]2CCOC3(CCN(C(=O)c4ccco4)CC3)C2)cc1	-23	4.58
CCC1(CNC(=O)CCS(C)(=O)=O)CCC1	-14	2.1
CO[C@@H](CS(=O)(=O)Nc1cccc2ocnc12)C1CCOCC1	-17	2.15
COc1ccc(C2OC(=O)N(Cc3cccnc3)C2(O)c2ccc(OC)cc2)cc1 (stereo not drawn)	32	-3.66
